The values that follow come from PubChem BioAssay AID463173 (ICCB-Longwood Screening Facility, Harvard Medical School, 2010).

The campaign covered roughly 52,000 compounds. About 1,700 (3.3%) were called active. Cut-off read from the data, not from the text of the source: active = survival mostly below about 52% (no sharp cut-off); inactive = mostly above about 56%. Some of the results follow.

The assay concerns Wild type. The experiment in a line: S. aureus survival, RN4220 and DeltatarO strains – OD600, teichoic acid synthesis inhibitors, primary screen (AID 463173). The settings on record: S. aureus RN4220 wild type/DeltatarO growth, OD600, 18 h, active compounds read low, screened at 18.75 µg/mL (by protocol).
For `CC1(C)CC(n2c(=O)c3c(n4cnnc24)-c2ccccc2CC32CCCCC2)CCO1` (stereo unspecified), the survival was inactive: 102%.
For the molecule `CCC1CCCCN1CCCNC(=O)c1sc2nc(C)cc(C)c2c1-n1cccc1` (stereo unspecified), the survival was inactive: 90%.
`Cc1ccc(NS(=O)(=O)c2ccc(-c3cc(C)no3)cc2)c(C)c1`: the survival is inactive: 101%.
Turning to `COc1ccc(CNC(=O)Cn2c(=O)n3nc(-c4cccc(F)c4)nc3c3ccccc32)cc1OC`, the survival is inactive: 84%.
Take `O=C(CSC1=NC(c2ccco2)CC(C(F)(F)F)N1)NCc1ccc(F)cc1` (stereo unspecified): the survival was inactive: 102%.
As for `COc1ccc(OC)c(NS(=O)(=O)c2ccc3c(c2)CCCN3C(=O)C2CCC2)c1`, the figure is inactive: 71%; as for `CCc1cc(=O)oc2c(C)c3c(cc12)CN(CCc1ccccc1)CO3`, inactive: 91%.
For `O=C(Nc1ccc(F)cc1F)c1cc(CN2CCOCC2)on1`, the survival is inactive: 69%.
As for `COc1ccc(CNC(=O)C2=Cc3cccc(OC)c3OC2)cc1OC`, the figure is inactive: 66%; as for `CCN1CCCC1CNC(=O)Nc1c[nH]c2ccc(C)cc2c1=O` (stereo unspecified), inactive: 117%; as for `Cc1ccc(S(=O)(=O)Nc2ccc3c(c2)CCCN3C(=O)c2cccs2)cc1C`, inactive: 65%.
Regarding `COc1cc(Br)c(C2CC(=O)Nc3cc4c(cc32)OCCO4)cc1OC` (stereo unspecified), the survival is inactive: 90%.
As for `CCc1ccc(CNC(=O)c2ccc(-n3c(C)cc4c3CCC(C)C4)cc2)cc1` (stereo unspecified), the figure is inactive: 124%; as for `COc1cccc(C(c2sc3nc(-c4ccco4)nn3c2O)N2CCC3(CC2)OCCO3)c1` (stereo unspecified), inactive: 60%; as for `CCc1nn(CC(=O)NCCN(CC(C)C)CC(C)C)c(=O)c2cc3sc(C)cc3n12`, inactive: 83%.
On to `CCc1ccc(NC(=O)c2ccc(F)c(S(=O)(=O)N3CCc4ccccc4C3)c2)cc1`, for which the survival was inactive: 71%.
In the case of `Cc1cccc(NC(=O)C(Cc2ccccc2)N2Cc3ccccc3C2=O)c1C` (stereo unspecified), the survival was inactive: 67%.
As for `COc1ccc(-c2nc(CSc3nnc(C)n4c3cc3sccc34)c(C)o2)cc1`, the figure is inactive: 108%; as for `CCS(=O)(=O)N1CCc2cc(C(=O)Nc3cccc(NC(C)=O)c3)ccc21`, inactive: 78%; as for `COc1ccc(-c2ccc(=O)n(CC(=O)Nc3ccccc3C(F)(F)F)n2)cc1`, inactive: 55%.
As for `Oc1ccccc1-c1nc2ccc(Cl)cn2c1Nc1ccc2c(c1)OCCO2`, the figure is inactive: 82%; as for `O=C(Nc1c(C(=O)N2CCN(c3ccccc3F)CC2)oc2ccccc12)c1ccc(Br)o1`, inactive: 80%; as for `Cc1ccc(C2c3[nH]c4ccccc4c3CCN2C(=O)CSc2ccccc2)cc1` (stereo unspecified), inactive: 66%.
In the case of `Cc1cc(C(=O)NCc2ccc(C(=O)O)o2)c(C)o1`, the survival was inactive: 96%.
The same measure for `CCOC(=O)CSc1nc2c(C)ccc(C)c2cc1C#N`: inactive: 95%.
As to `CC(Oc1ccc(Br)cc1)C(=O)N(Cc1nc(-c2ccccc2)no1)C(C)C` (stereo unspecified), the survival was inactive: 104%.
As to `O=C(NCCCN1CCN(c2ccccc2)CC1)c1ccc2nc(CCc3ccccc3)oc2c1`, the survival is inactive: 45%.
As for `CCc1nn2c(=O)cc(COC(=O)c3ccccc3NC(=O)c3ccc(C(C)(C)C)cc3)nc2s1`, the survival is inactive: 90%.
Regarding `Cc1ccccc1OCC(=O)Nc1nnc(S(=O)(=O)N2CCCCCC2)s1`, the survival was inactive: 77%.
With `Cn1c(=O)oc2cc(S(=O)(=O)N3CCCC(C(=O)N4CCN(c5ccc(F)cc5)CC4)C3)ccc21` (stereo unspecified), the survival is inactive: 86%.
As to `CSc1cccc(NC(=O)C2CCCN(S(=O)(=O)c3ccc4c(c3)CCCN4C(C)=O)C2)c1` (stereo unspecified), the survival was inactive: 70%.
In the case of `O=C(O)C1CSC(c2cccs2)N1` (stereo unspecified), the survival was inactive: 106%.
With `CN(CCCN1C(=O)c2ccccc2C1=O)CCCN1C(=O)c2ccccc2C1=O`, the survival was inactive: 97%.
Consider `Cc1ccc(-n2c(-c3cccc(C)c3)nc3c(cnn3-c3ccccc3)c2=O)cc1`, for which the survival was inactive: 26%.
Turning to `O=S(=O)(c1ccc(F)cc1)N1CCCCC1`, the survival is inactive: 109%.
In the case of `CCN(CC)C(=O)n1c(Cc2ccccc2)nc2ccccc21`, the survival is inactive: 111%.
Turning to `CCOC(=O)c1ccccc1NC(=O)CSc1nc2cn(CC)nc2c(=O)n1Cc1ccc(Cl)cc1`, the survival was inactive: 67%.
As for `Cc1ccc2c(c1)c1c(c(=O)n(-c3cccc(Cl)c3)c(=O)n1CC(=O)Nc1c(C)cccc1C)n2C`, the survival is inactive: 66%.
Turning to `O=C(CC1N=C2c3ccccc3N=C(SCc3ccc(Cl)cc3)N2C1=O)NCc1cccs1` (stereo unspecified), the survival is inactive: 71%.
Regarding `COc1ccc(N2CCN(C(=O)C3CCN(S(=O)(=O)c4cccs4)CC3)CC2)cc1`, the survival is inactive: 115%.
The same measure for `Cc1ccc(CN2CCSc3ccc(C(=O)N4CCN(c5ccccc5)CC4)cc32)cc1`: inactive: 48%; for `O=c1c2cc3c(cc2n(Cc2ccc(Cl)cc2)c(=O)n1Cc1nc(-c2ccccc2)no1)OCO3`: inactive: 117%.
Turning to `Cc1ccc(-n2c(Cc3ccccc3)nnc2SCc2nc(-c3cccs3)no2)cc1`, the survival was inactive: 65%.
For `Cc1ccc(/C=C/c2onc(C)c2S(=O)(=O)N2CCC(C(=O)N3CCC(N(C)C(C)C)CC3)CC2)cc1`, the survival is inactive: 74%.
For the molecule `Cc1ccc(C)c(CN2CCCN(Cc3ccc(F)cc3)S2(=O)=O)c1`, the survival was active: -6%.
In the case of `COc1ccc(CNC(=O)Cc2c(C)c3cc4c(C)coc4c(C)c3oc2=O)cc1`, the survival was inactive: 95%.
As to `O=C(Nc1cccc(Cl)c1)c1cnc2sc(N3CCCC3)nn2c1=O`, the survival was inactive: 58%.
Consider `CN1C(=O)Cc2cc(S(=O)(=O)N3CCN(c4ccccc4F)CC3)ccc21`, for which the survival is inactive: 153%.
With `Cc1nc(-n2nc(C)c(Cc3ccccc3Cl)c2C)sc1C(=O)Nc1ccccc1F`, the survival was inactive: 88%.
For the molecule `CC(C)c1ccc(C2=CC(c3ccc(C(C)C)cc3)n3nnnc3N2)cc1` (stereo unspecified), the survival is inactive: 63%.
With `Cc1ccc2nc3c(cc(C(=O)NCC4CCCO4)c(=N)n3C(C)C)c(=O)n2c1` (stereo unspecified), the survival was inactive: 82%.
As for `CCOC(=O)Cn1c(=O)n(CC2CCCO2)c2nc(-c3ccc(C)cc3)nc(C(N)=O)c21` (stereo unspecified), the figure is inactive: 63%.
For the molecule `CC(=O)c1ccc(S(=O)(=O)N2CCn3cccc3C2c2ccc(C)cc2)cc1` (stereo unspecified), the survival was inactive: 72%.
For the molecule `COc1ccc(Cl)cc1NC(=O)Cc1ccc(NC(=O)N2CCCCc3ccccc32)cc1`, the survival is inactive: 78%.
As for `COc1ccccc1NC(=O)C(=O)NCC(c1ccc2c(c1)OCO2)N1CCOCC1` (stereo unspecified), the survival is inactive: 63%.
For the molecule `COc1ccccc1/C=C/c1nc2ccccc2n1C(C)C`, the survival was active: 2%.
